{"source": "the supplement of paper PMC10369915", "binders": {"B1": {"name": "SRRT_HUMAN_836_YA (peptide)", "chain": "AGAGRGNYDAFRGQG"}, "B2": {"name": "SRRT_HUMAN_92 (peptide)", "chain": "DEHSSDPYHSGYEMP"}, "B3": {"name": "SRRT_HUMAN_92_YA (peptide)", "chain": "DEHSSDPYHSGAEMP"}, "B4": {"name": "SRSF9_HUMAN_192 (peptide)", "chain": "ERSTSYGYSRSRSGS"}, "B5": {"name": "B3AT_HUMAN_21 (peptide)", "chain": "ENLEQEEYEDPDIPE"}, "B6": {"name": "SSBP3_HUMAN_25 (peptide)", "chain": "EKLALYVYEYLLHVG"}, "B7": {"name": "SSBP3_HUMAN_25_YA (peptide)", "chain": "EKLALAVYEALLHVG"}, "B8": {"name": "SSRP1_HUMAN_441_YA (peptide)", "chain": "MNPSADEYADSDEDQ"}, "B9": {"name": "SSRP1_HUMAN_452 (peptide)", "chain": "DEDQHDAYLERMKEE"}, "B10": {"name": "STA5B_HUMAN_682 (peptide)", "chain": "KDEVYSKYYTPVPCE"}, "B11": {"name": "STA5B_HUMAN_682_YA (peptide)", "chain": "KDEVASKYATPVPCE"}, "B12": {"name": "STAM2_HUMAN_374_YA (peptide)", "chain": "EAPVASVYSKLHPPA"}, "B13": {"name": "STAP2_HUMAN_22_YA (peptide)", "chain": "GVLPSHAYESFLEKK"}, "B14": {"name": "STAP2_HUMAN_322 (peptide)", "chain": "GDGPAVDYENQDVAS"}, "B15": {"name": "STAT2_HUMAN_690 (peptide)", "chain": "NLQERRKYLKHRLIV"}, "B16": {"name": "STAT6_HUMAN_641 (peptide)", "chain": "MGKDGRGYVPATIKM"}, "B17": {"name": "STIP1_HUMAN_354 (peptide)", "chain": "KEQERLAYINPDLAL"}, "B18": {"name": "B3AT_HUMAN_8 (peptide)", "chain": "MEELQDDYEDMMEEN"}}, "note": "Some of the results follow. No stated cut-off is given here; in the data, active = 3.2 or more and inactive = the rest. Most of these values are background signal.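 Further: displayed peptides selected on beads carrying the immobilized SH2 domain, with library peptides lacking any tyrosine serving as negative controls.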", "data": [{"biological_target": "SHP2 C-SH2 domain E139D", "assay": "enrichment score (SH2-bound / input frequency) (ratio); higher = stronger binding; tyrosines were phosphorylated by kinases first", "settings": "peptide library: Human pTyr", "values": [{"binder": "B1", "enrichment score": "inactive: 0.697"}, {"binder": "B2", "enrichment score": "inactive: 0.446"}, {"binder": "B3", "enrichment score": "inactive: 0.751"}, {"binder": "B4", "enrichment score": "inactive: 0.777"}, {"binder": "B5", "enrichment score": "inactive: 1.16"}, {"binder": "B6", "enrichment score": "inactive: 3.1"}, {"binder": "B7", "enrichment score": "inactive: 2.31"}, {"binder": "B8", "enrichment score": "inactive: 1.19"}, {"binder": "B9", "enrichment score": "inactive: 1.13"}, {"binder": "B10", "enrichment score": "inactive: 1.27"}, {"binder": "B11", "enrichment score": "inactive: 1.03"}, {"binder": "B12", "enrichment score": "inactive: 1.03"}, {"binder": "B13", "enrichment score": "inactive: 0.807"}, {"binder": "B14", "enrichment score": "inactive: 0.862"}, {"binder": "B15", "enrichment score": "inactive: 0.599"}, {"binder": "B16", "enrichment score": "inactive: 1.13"}, {"binder": "B17", "enrichment score": "inactive: 0.881"}, {"binder": "B18", "enrichment score": "inactive: 1.16"}]}, {"biological_target": "SHP2 C-SH2 domain wild-type", "assay": "enrichment score (SH2-bound / input frequency) (ratio); higher = stronger binding; tyrosines were phosphorylated by kinases first", "settings": "peptide library: Human pTyr", "values": [{"binder": "B1", "enrichment score": "inactive: 0.698"}, {"binder": "B2", "enrichment score": "inactive: 0.529"}, {"binder": "B3", "enrichment score": "inactive: 0.594"}, {"binder": "B4", "enrichment score": "inactive: 0.513"}, {"binder": "B5", "enrichment score": "inactive: 1.33"}, {"binder": "B6", "enrichment score": "inactive: 2.95"}, {"binder": "B7", "enrichment score": "inactive: 2.04"}, {"binder": "B8", "enrichment score": "inactive: 0.988"}, {"binder": "B9", "enrichment score": "inactive: 0.965"}, {"binder": "B10", "enrichment score": "inactive: 1.01"}, {"binder": "B11", "enrichment score": "inactive: 0.946"}, {"binder": "B12", "enrichment score": "inactive: 2.71"}, {"binder": "B13", "enrichment score": "inactive: 0.522"}, {"binder": "B14", "enrichment score": "inactive: 0.818"}, {"binder": "B15", "enrichment score": "inactive: 0.8"}, {"binder": "B16", "enrichment score": "inactive: 0.982"}, {"binder": "B17", "enrichment score": "inactive: 0.669"}, {"binder": "B18", "enrichment score": "inactive: 1.17"}]}, {"biological_target": "SHP2 N-SH2 domain L43F", "assay": "enrichment score (SH2-bound / input frequency) (ratio); higher = stronger binding; tyrosines were phosphorylated by kinases first", "settings": "peptide library: Human pTyr", "values": [{"binder": "B1", "enrichment score": "inactive: 0.772"}, {"binder": "B2", "enrichment score": "inactive: 0.474"}, {"binder": "B3", "enrichment score": "inactive: 0.607"}, {"binder": "B4", "enrichment score": "inactive: 0.636"}, {"binder": "B5", "enrichment score": "inactive: 1.26"}, {"binder": "B6", "enrichment score": "inactive: 2.76"}, {"binder": "B7", "enrichment score": "inactive: 1.84"}, {"binder": "B8", "enrichment score": "inactive: 1.15"}, {"binder": "B9", "enrichment score": "inactive: 0.961"}, {"binder": "B10", "enrichment score": "inactive: 0.976"}, {"binder": "B11", "enrichment score": "inactive: 0.829"}, {"binder": "B12", "enrichment score": "inactive: 0.739"}, {"binder": "B13", "enrichment score": "inactive: 0.822"}, {"binder": "B14", "enrichment score": "inactive: 0.878"}, {"binder": "B15", "enrichment score": "inactive: 0.51"}, {"binder": "B16", "enrichment score": "inactive: 1.14"}, {"binder": "B17", "enrichment score": "inactive: 1.35"}, {"binder": "B18", "enrichment score": "inactive: 1.07"}]}, {"biological_target": "SHP2 N-SH2 domain T42A", "assay": "enrichment score (SH2-bound / input frequency) (ratio); higher = stronger binding; tyrosines were phosphorylated by kinases first", "settings": "peptide library: Human pTyr", "values": [{"binder": "B1", "enrichment score": "inactive: 0.954"}, {"binder": "B2", "enrichment score": "inactive: 0.491"}, {"binder": "B3", "enrichment score": "inactive: 0.589"}, {"binder": "B4", "enrichment score": "inactive: 0.77"}, {"binder": "B5", "enrichment score": "inactive: 1.06"}, {"binder": "B6", "enrichment score": "active: 3.23"}, {"binder": "B7", "enrichment score": "inactive: 1.94"}, {"binder": "B8", "enrichment score": "inactive: 1.03"}, {"binder": "B9", "enrichment score": "inactive: 1.1"}, {"binder": "B10", "enrichment score": "inactive: 1.09"}, {"binder": "B11", "enrichment score": "inactive: 0.784"}, {"binder": "B12", "enrichment score": "inactive: 0.6"}, {"binder": "B13", "enrichment score": "inactive: 0.515"}, {"binder": "B14", "enrichment score": "inactive: 0.841"}, {"binder": "B15", "enrichment score": "inactive: 0.592"}, {"binder": "B16", "enrichment score": "inactive: 1.07"}, {"binder": "B17", "enrichment score": "active: 7.41"}, {"binder": "B18", "enrichment score": "inactive: 1.01"}]}, {"biological_target": "SHP2 N-SH2 domain T52S", "assay": "enrichment score (SH2-bound / input frequency) (ratio); higher = stronger binding; tyrosines were phosphorylated by kinases first", "settings": "peptide library: Human pTyr", "values": [{"binder": "B1", "enrichment score": "inactive: 0.908"}, {"binder": "B2", "enrichment score": "inactive: 0.508"}, {"binder": "B3", "enrichment score": "inactive: 0.617"}, {"binder": "B4", "enrichment score": "inactive: 0.877"}, {"binder": "B5", "enrichment score": "inactive: 1.27"}, {"binder": "B6", "enrichment score": "inactive: 2.89"}, {"binder": "B7", "enrichment score": "inactive: 2.01"}, {"binder": "B8", "enrichment score": "inactive: 1.18"}, {"binder": "B9", "enrichment score": "inactive: 1.19"}, {"binder": "B10", "enrichment score": "inactive: 1.04"}, {"binder": "B11", "enrichment score": "inactive: 0.876"}, {"binder": "B12", "enrichment score": "inactive: 0.602"}, {"binder": "B13", "enrichment score": "inactive: 0.681"}, {"binder": "B14", "enrichment score": "inactive: 0.791"}, {"binder": "B15", "enrichment score": "inactive: 0.774"}, {"binder": "B16", "enrichment score": "inactive: 1.11"}, {"binder": "B17", "enrichment score": "inactive: 1.17"}, {"binder": "B18", "enrichment score": "inactive: 1.36"}]}, {"biological_target": "SHP2 N-SH2 domain wild-type", "assay": "enrichment score (SH2-bound / input frequency) (ratio); bacterial display of known human phosphotyrosine sites (pTyr-Var adds point mutants) read by sequencing; higher = stronger binding; tyrosines were phosphorylated by kinases first", "settings": "peptide library: Human pTyr", "values": [{"binder": "B1", "enrichment score": "inactive: 0.835"}, {"binder": "B2", "enrichment score": "inactive: 0.473"}, {"binder": "B3", "enrichment score": "inactive: 0.579"}, {"binder": "B4", "enrichment score": "inactive: 0.776"}, {"binder": "B5", "enrichment score": "inactive: 1.27"}, {"binder": "B6", "enrichment score": "inactive: 3.19"}, {"binder": "B7", "enrichment score": "inactive: 2.43"}, {"binder": "B8", "enrichment score": "inactive: 1.06"}, {"binder": "B9", "enrichment score": "inactive: 1.08"}, {"binder": "B10", "enrichment score": "inactive: 0.932"}, {"binder": "B11", "enrichment score": "inactive: 0.818"}, {"binder": "B12", "enrichment score": "inactive: 0.601"}, {"binder": "B13", "enrichment score": "inactive: 0.628"}, {"binder": "B14", "enrichment score": "inactive: 0.813"}, {"binder": "B15", "enrichment score": "inactive: 0.674"}, {"binder": "B16", "enrichment score": "inactive: 1.32"}, {"binder": "B17", "enrichment score": "inactive: 0.872"}, {"binder": "B18", "enrichment score": "inactive: 1.31"}]}]}
